Measured values published in the supplement of paper PMC3334620.
In all, about 33,000 sequences were measured (“E-score (-0.5 to 0.5)”: median about -0.056, highest 2% from about 0.38 on). The list shows a part of the results.

The sequences below were run against Stb4 (UniProt P50104) (assay: PBM E-score (8-mer binding enrichment) (E-score (-0.5 to 0.5)); higher = stronger / more preferred TF binding; most listed sequences are background and not binding sites). Conditions: protein concentration: 200 nM; construct: GST-DNA-binding domain.
Method in brief: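 Masliner-normalised scans of fluorescent anti-GST signal were the basis for scoring. That signal came from GST-tagged yeast transcription factors applied at about 100-200 nM to double-stranded universal all-10-mer Agilent arrays on fresh or once-stripped slides. Each ungapped eight-base word, pooled with its reverse complement, received an E-score from the Universal PBM Analysis Suite.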

Row | Sequence | PBM E-score
1 | TACATGTA | -0.155
2 | CCCCCCAC | -0.3
3 | CCAGACTA | -0.229
4 | ATGGGACC | -0.189
5 | CCAATTAG | -0.165
6 | CTAGCGCA | -0.318
7 | CTCGGGAA | 0.462
8 | AGTAACAC | 0.0427
9 | ATCTAATC | -0.0169
10 | CTAGTAAG | -0.188
11 | CTTGAGTA | -0.191
12 | ACAGAAGG | -0.201
13 | ACGCTACT | 0.132
14 | ATTTATAA | 0.00745
15 | AGATCATC | -0.0349
16 | CAGGCAGC | -0.201
17 | ACGAAGAG | -0.117
18 | AGAGCTAA | -0.217
19 | CCGGATGC | 0.396
20 | ATACTCTG | -0.0469
21 | ATAGTTGA | -0.00074
22 | AAGGAGAA | -0.0453
23 | CTTGATTC | 0.0888
24 | ACCCAACA | -0.0981
25 | ATAACACA | -0.0247

Row | Sequence | PBM E-score
26 | ATTGTTGA | -0.199
27 | AAGTAGTG | -0.176
28 | ATGCAAGC | -0.145
29 | ATAGATCA | 0.0146
30 | AGTTAGAC | -0.0164
31 | GGTAGCAA | -0.109
32 | TATCTAGA | -0.169
33 | CTGGCAAC | -0.243
34 | AGTCAGAA | -0.104
35 | CATGATGG | -0.269
36 | ACAGCCTG | -0.25
37 | CGGCACAC | 0.274
38 | AGGTAGCC | -0.0398
39 | GAAGCAGC | -0.0283
40 | CATATTGC | -0.0428
41 | CATCGGCC | 0.159
42 | ACGTAAAG | -0.128
43 | CCTCTGCG | -0.143
44 | AGTATTGA | -0.226
45 | AAACGACA | -0.138
46 | GATTGCAC | -0.0781
47 | CGAATTGA | 0.0281
48 | TGTGAAAA | -0.175
49 | AAGGAACT | -0.0354
50 | ACATATAG | -0.134

Row | Sequence | PBM E-score
51 | CTCCACCC | -0.145
52 | GATAGATA | 0.098
53 | GATCAGGA | -0.029
54 | ACAGGACT | -0.102
55 | AAGATGGT | -0.0241
56 | AAGGCGGG | -0.0393
57 | CTCAGCCC | -0.169
58 | GTCGCTCA | -0.129
59 | TCCATCCA | -0.278
60 | TCCTTCAA | -0.11
61 | ACGATGTG | 0.00046
62 | CATTCTCC | -0.138
63 | AGCTACGA | -0.277
64 | ACGCGTCG | 0.155
65 | CGATTTTC | 0.141
66 | CGCGTGTA | -0.0132
67 | TCTGTACA | 0.137
68 | CCTAGTCC | -0.0917
69 | AGATCTGA | -0.0785
70 | TGGACAAA | -0.0147
71 | CCACTGAC | -0.219
72 | GATATCAC | -0.0685
73 | CGTTGCAC | 0.159
74 | ACAGTTCG | 0.185
75 | AATTCGAC | -0.265

Row | Sequence | PBM E-score
76 | CGCACCGA | 0.105
77 | CCGTTTCG | 0.241
78 | GACTAGTA | -0.097
79 | ACCCCCCG | 0.147
80 | ACTATTTC | -0.0167
81 | ACAAGCTC | 0.0522
82 | CGAAGGAC | 0.139
83 | CACTGTCG | 0.057
84 | GGCCAGCC | -0.0538
85 | AATCAGAA | 0.0584
86 | GGACTGAC | 0.00322
87 | ATCTCCAT | -0.184
88 | AATTTGAG | -0.0746
89 | ATTTATTA | -0.025
90 | TTTGAAAA | -0.166
91 | AGGGGTAA | -0.254
92 | AACACCGG | 0.248
93 | CGAGGCGC | 0.155
94 | AACCGGGG | 0.164
95 | GACGCGCA | -0.0515
96 | AATGACGC | -0.238
97 | AGTGAGCA | -0.114
98 | ATCGAGAG | -0.194
99 | CGAACCGC | 0.0494
100 | TATCATAA | -0.112

Row | Sequence | PBM E-score
101 | CGACGCGC | 0.112
102 | AGAGCGTA | -0.258
103 | CTTGTGCA | -0.129
104 | ACCCTACC | 0.0725
105 | TACGATGA | -0.101
106 | CCTGTAGC | -0.23
107 | CTCTGGGC | -0.184
108 | GCCTTAAC | -0.196
109 | ACAGTTTA | -0.209
110 | GGGGATAC | -0.0133
111 | CAAGTCAC | -0.149
112 | GAGCACCC | 0.123
113 | CAGATTTC | -0.0451
114 | GCGCACAC | 0.0106
115 | CGCAACGC | 0.0134
116 | CCTCGATA | -0.048
117 | AACAAACG | -0.171
118 | GCTTCCTA | -0.0701
119 | AGTCTGGA | -0.209
120 | TCTCTACA | -0.163
121 | GCGGTCCC | 0.113
122 | ATGAAAGC | 0.0338
123 | AGGCACGA | -0.19
124 | CAGAGAAC | -0.197
125 | TTAGGGAA | -0.262

Row | Sequence | PBM E-score
126 | CGGATTAC | 0.201
127 | CACGCCTA | -0.262
128 | CCTAGAGC | -0.0811
129 | GGCTTTCA | 0.0635
130 | CGTTGGAG | -0.232
131 | GTTTCACA | -0.171
132 | GACTGCCA | -0.149
133 | GCCGCCCA | 0.0651
134 | ACGTGCCC | -0.0194
135 | AGTCAAAG | -0.034
136 | ACGCACAA | -0.182
137 | AATGAAGG | -0.254
138 | AGGAATGG | -0.23
139 | GATCATAC | -0.0525
140 | AGACTTCC | 0.144
141 | CGACCTAG | -0.0164
142 | AATACACC | 0.0448
143 | ATAACGTC | -0.077
144 | GCTTGAAA | -0.0142
145 | GCGCTTCC | 0.206
146 | GCCCCAAA | -0.232
147 | GGCAGACA | 0.124
148 | TCGCTTCA | -0.0932
149 | CTTTGTCA | -0.168
150 | ACCGCAAG | 0.101

Row | Sequence | PBM E-score
151 | ATTGACTC | 0.0397
152 | ATGTTCGA | -0.112
153 | GTCAGGGA | -0.081
154 | TACGGATA | 0.385
155 | GCTCGGTA | 0.416
156 | AGCATAAC | -0.119
157 | ATACAAGC | -0.0427
158 | CGACTGGC | 0.0876
159 | ACATGTGA | -0.247
160 | CAGGGTGG | -0.251
161 | CTGTTGAC | -0.242
162 | ACTTTATA | 0.0827
163 | CAAAATAA | -0.0484
164 | ACGTCCTC | -0.144
165 | AGATACGC | -0.0363
166 | GATGACCA | -0.108
167 | ATTCTACC | 0.0527
168 | CACATATC | -0.0483
169 | ATCTGAGA | -0.0638
170 | GGCCCCTA | -0.0463
171 | CTTTAGCC | 0.172
172 | CTGTGAAC | -0.137
173 | CGTTCGTC | -0.0301
174 | ATAGTGGA | -0.0464
175 | CATCGTGA | -0.134

Row | Sequence | PBM E-score
176 | GAGATGCC | 0.0539
177 | ATCAATAC | -0.17
178 | GACAACGA | -0.0453
179 | TAGGTCGA | -0.13
180 | CCCTTATC | -0.0435
181 | ACAAACGG | 0.187
182 | AGAGCTCC | -0.0492
183 | GTAGGCTA | -0.23
184 | ATACAACA | -0.219
185 | ATCGGCAG | 0.321
186 | ACTCACTA | -0.0905
187 | AAGAGTAG | -0.0478
188 | ACATTCGC | -0.0892
189 | AAGCGCGT | -0.0061
190 | TGAGGAAA | -0.0691
191 | CGTGAAGC | -0.0811
192 | ACCAACGT | -0.0953
193 | AAGTGGGT | -0.0789
194 | ATGAAAAA | 0.0997
195 | AAGGACGC | -0.102
196 | AGTTTCAG | -0.0891
197 | ACCGGTCT | -0.11
198 | ACGGCTAC | 0.249
199 | CCGGACCC | 0.303
200 | CAGTTAAG | -0.0574

Row | Sequence | PBM E-score
201 | AAGGGGAC | -0.0934
202 | ACATGCGC | -0.0782
203 | AATAAATT | -0.0542
204 | TGCTATAA | -0.0519
205 | GTAATCTA | 0.0719
206 | CACCATGG | -0.29
207 | ACGCGCTC | -0.0789
208 | ATCTACAA | -0.164
209 | AGCCTAAA | -0.227
210 | ATCAGGTA | -0.0642
211 | CCCTGTCG | -0.0338
212 | AAGTGGAC | -0.0959
213 | ATAGTGAG | -0.215
214 | CACATGCA | -0.166
215 | ATACAGAC | -0.134
216 | ATAGAGAC | -0.16
217 | GTAGATCA | 0.0459
218 | GAGATAAC | -0.0742
219 | CGAGTAGC | 0.192
